{"source": "the supplement of paper PMC3334620", "note": "Over roughly 33,000 sequences, “E-score (-0.5 to 0.5)” has its median near -0.054; the highest 2% begin near 0.39. The list shows a part of the results.", "data": [{"target": "Ylr278c (UniProt Q05854)", "assay": "PBM E-score (8-mer binding enrichment) (E-score (-0.5 to 0.5)); higher = stronger / more preferred TF binding; most listed sequences are background and not binding sites", "conditions": "protein concentration: 200 nM; construct: GST-DNA-binding domain", "method": "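Universal 'all 10-mer' protein binding microarrays (Agilent AMADID 015681) probed with GST-tagged S. cerevisiae TFs (full-length or DBD) made by in vitro transcription/translation (PURExpress), about 100-200 nM. Bound TF was detected with fluorescent anti-GST. Each ungapped 8-mer (which stands for itself and its reverse complement) is scored by the PBM enrichment score (E-score), a modified Wilcoxon-Mann-Whitney statistic from -0.5 to +0.5, computed with the Universal PBM Analysis Suite. Scale: above 0.35 generally sequence-specific binding.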", "values": [{"sequence": "AGGACAAA", "PBM E-score": -0.0109}, {"sequence": "GCGCGATA", "PBM E-score": 0.168}, {"sequence": "TGCAGAAA", "PBM E-score": -0.00018}, {"sequence": "AAACCGCA", "PBM E-score": -0.11}, {"sequence": "GACCCTGA", "PBM E-score": -0.0558}, {"sequence": "CATCTATC", "PBM E-score": -0.0479}, {"sequence": "TCGGGACA", "PBM E-score": 0.163}, {"sequence": "AGTAGGTG", "PBM E-score": -0.027}, {"sequence": "CACGTTCA", "PBM E-score": -0.148}, {"sequence": "CCCGGTTC", "PBM E-score": 0.171}, {"sequence": "AAACCCGT", "PBM E-score": 0.0191}, {"sequence": "CCGGCTTA", "PBM E-score": 0.36}, {"sequence": "GATTCAGA", "PBM E-score": -0.0391}, {"sequence": "CCCTACAG", "PBM E-score": -0.218}, {"sequence": "ATCTTCAC", "PBM E-score": -0.0748}, {"sequence": "ACGCTTCA", "PBM E-score": -0.314}, {"sequence": "ACATATGT", "PBM E-score": -0.085}, {"sequence": "AGCTCCCC", "PBM E-score": -0.121}, {"sequence": "CGATCTGA", "PBM E-score": 0.0201}, {"sequence": "ACAGCGGC", "PBM E-score": 0.0736}, {"sequence": "ACGGTGTC", "PBM E-score": 0.0954}, {"sequence": "GACCGCTC", "PBM E-score": 0.0163}, {"sequence": "CTCTCCAG", "PBM E-score": -0.282}, {"sequence": "GAGAATTA", "PBM E-score": 0.0026}, {"sequence": "ACCTCCGG", "PBM E-score": 0.47}, {"sequence": "AGAATCCA", "PBM E-score": -0.089}, {"sequence": "AAGATATT", "PBM E-score": 0.0287}, {"sequence": "GTATGTTA", "PBM E-score": 0.0152}, {"sequence": "GATTAGTA", "PBM E-score": 0.0658}, {"sequence": "CGACTCGC", "PBM E-score": 0.0316}, {"sequence": "GATTAATA", "PBM E-score": 0.105}, {"sequence": "GGGGAATA", "PBM E-score": 0.141}, {"sequence": "TAAAACAA", "PBM E-score": -0.0903}, {"sequence": "ATAACGAC", "PBM E-score": -0.0629}, {"sequence": "ACCAGACC", "PBM E-score": -0.0464}, {"sequence": "CCAACGAC", "PBM E-score": -0.258}, {"sequence": "GTCTCAGA", "PBM E-score": -0.204}, {"sequence": "CGATAAAC", "PBM E-score": -0.0343}, {"sequence": "GTACCGTA", "PBM E-score": 0.0161}, {"sequence": "GATTGGGC", "PBM E-score": 0.0655}, {"sequence": "GGAAAACA", "PBM E-score": 0.211}, {"sequence": "CTCTATCA", "PBM E-score": -0.0843}, {"sequence": "CAAACGTA", "PBM E-score": -0.146}, {"sequence": "ACTGACCT", "PBM E-score": -0.107}, {"sequence": "AGGCTACC", "PBM E-score": -0.195}, {"sequence": "ATGTTTTG", "PBM E-score": -0.0945}, {"sequence": "CAGTACGG", "PBM E-score": -0.0416}, {"sequence": "GCGTCAGC", "PBM E-score": 0.0112}, {"sequence": "GCTTGCCC", "PBM E-score": -0.231}, {"sequence": "CGCTATAC", "PBM E-score": 0.0919}, {"sequence": "AACACAAC", "PBM E-score": -0.0104}, {"sequence": "AAAGCAAT", "PBM E-score": 0.0295}, {"sequence": "TGTCCTAA", "PBM E-score": -0.233}, {"sequence": "AAATACCA", "PBM E-score": -0.106}, {"sequence": "GAAGCTAC", "PBM E-score": -0.144}, {"sequence": "AGAGTATC", "PBM E-score": -0.0153}, {"sequence": "GGCTTACA", "PBM E-score": 0.074}, {"sequence": "TACGTATA", "PBM E-score": -0.248}, {"sequence": "AAGGGACA", "PBM E-score": -0.338}, {"sequence": "GGATGGCA", "PBM E-score": 0.162}, {"sequence": "GGGGCGAA", "PBM E-score": 0.155}, {"sequence": "ACTGTGCG", "PBM E-score": 0.00085}, {"sequence": "ATTGTGTG", "PBM E-score": -0.177}, {"sequence": "ACCTCCGA", "PBM E-score": 0.454}, {"sequence": "CCCACACG", "PBM E-score": 0.0476}, {"sequence": "AGGTTTTG", "PBM E-score": -0.102}, {"sequence": "CACCCCCG", "PBM E-score": 0.145}, {"sequence": "ACCGGTGA", "PBM E-score": 0.248}, {"sequence": "GCCCTCCA", "PBM E-score": -0.114}, {"sequence": "ATCTACCC", "PBM E-score": 0.0943}, {"sequence": "CCATTACG", "PBM E-score": -0.226}, {"sequence": "ACAACTCT", "PBM E-score": -0.199}, {"sequence": "ACAACTGA", "PBM E-score": -0.0947}, {"sequence": "ATGTTGCG", "PBM E-score": 0.154}, {"sequence": "CATACTAG", "PBM E-score": 0.0773}, {"sequence": "AGATCAAC", "PBM E-score": -0.117}, {"sequence": "AGGTACCA", "PBM E-score": -0.114}, {"sequence": "ATCTAAGC", "PBM E-score": -0.261}, {"sequence": "ATCCAACA", "PBM E-score": -0.0549}, {"sequence": "CCTGTATC", "PBM E-score": -0.0301}, {"sequence": "GCCGAGTA", "PBM E-score": 0.119}, {"sequence": "AAGGGAAA", "PBM E-score": -0.238}, {"sequence": "CCGAAGCG", "PBM E-score": 0.279}, {"sequence": "ACGAGGCC", "PBM E-score": 0.0992}, {"sequence": "AACGGGGG", "PBM E-score": -0.0339}, {"sequence": "ATGGTGTG", "PBM E-score": -0.23}, {"sequence": "GCTTTCAC", "PBM E-score": -0.142}, {"sequence": "ACTTCCAC", "PBM E-score": 0.0604}, {"sequence": "GGGCCGGA", "PBM E-score": 0.418}, {"sequence": "GGTGCAAA", "PBM E-score": -0.0749}, {"sequence": "ATACCAGA", "PBM E-score": -0.142}, {"sequence": "ACCAGACG", "PBM E-score": -0.241}, {"sequence": "AATCAGGC", "PBM E-score": -0.00034}, {"sequence": "GTTAAAGA", "PBM E-score": -0.108}, {"sequence": "ACCCTCCT", "PBM E-score": -0.199}, {"sequence": "GATTGAGC", "PBM E-score": -0.00835}, {"sequence": "CAGTAGCA", "PBM E-score": -0.0829}, {"sequence": "ACGTACGA", "PBM E-score": -0.153}, {"sequence": "ATGGCGAG", "PBM E-score": -0.178}, {"sequence": "CAGCCGTA", "PBM E-score": -0.0569}, {"sequence": "AGTATGGA", "PBM E-score": -0.0284}, {"sequence": "AGCCCGTG", "PBM E-score": -0.0379}, {"sequence": "CACGATGA", "PBM E-score": -0.181}, {"sequence": "ACGTGTCC", "PBM E-score": 0.154}, {"sequence": "CTAGCTGA", "PBM E-score": -0.213}, {"sequence": "AGTTATCC", "PBM E-score": 0.116}, {"sequence": "TGCGGGAA", "PBM E-score": 0.33}, {"sequence": "GCTCAACC", "PBM E-score": -0.177}, {"sequence": "GAAATTGA", "PBM E-score": 0.195}, {"sequence": "AGTAAGAA", "PBM E-score": 0.0055}, {"sequence": "AAGAGAAA", "PBM E-score": -0.0718}, {"sequence": "GCATTCTA", "PBM E-score": -0.104}, {"sequence": "CGAAAGGA", "PBM E-score": 0.154}, {"sequence": "AAAGCACG", "PBM E-score": -0.239}, {"sequence": "CACCCCCA", "PBM E-score": -0.259}, {"sequence": "AAGACCTG", "PBM E-score": -0.145}, {"sequence": "AAAGCGAG", "PBM E-score": 0.0641}, {"sequence": "CCAAACAC", "PBM E-score": -0.144}, {"sequence": "GCGTGGGA", "PBM E-score": -0.12}, {"sequence": "AACCGCTG", "PBM E-score": -0.165}, {"sequence": "AATACCAG", "PBM E-score": -0.0227}, {"sequence": "CGCACATC", "PBM E-score": 0.11}, {"sequence": "CTCTCGTC", "PBM E-score": -0.0968}, {"sequence": "AATGGCCG", "PBM E-score": 0.261}, {"sequence": "ATATCGTG", "PBM E-score": 0.059}, {"sequence": "AAGGAACA", "PBM E-score": -0.289}, {"sequence": "GAAGTGCC", "PBM E-score": 0.0699}, {"sequence": "GGGATTAC", "PBM E-score": 0.172}, {"sequence": "GTCATCCA", "PBM E-score": -0.151}, {"sequence": "ATTCGGCC", "PBM E-score": 0.284}, {"sequence": "TATGCATA", "PBM E-score": -0.12}, {"sequence": "CTCAGAGA", "PBM E-score": -0.212}, {"sequence": "TGGTTAAA", "PBM E-score": -0.111}, {"sequence": "ACTTTCCA", "PBM E-score": 0.0523}, {"sequence": "CATTTAGA", "PBM E-score": 0.0126}, {"sequence": "GTGAATAA", "PBM E-score": -0.0423}, {"sequence": "ATGCTTTG", "PBM E-score": -0.0719}, {"sequence": "AGGACCCT", "PBM E-score": -0.276}, {"sequence": "CGTAAAAA", "PBM E-score": -0.116}, {"sequence": "AGACACAA", "PBM E-score": 0.0242}, {"sequence": "ATAATTAT", "PBM E-score": 0.0338}, {"sequence": "CCTCTACC", "PBM E-score": -0.0861}, {"sequence": "ACCTTTCT", "PBM E-score": -0.129}, {"sequence": "ATAAATGC", "PBM E-score": -0.00686}, {"sequence": "CTTGTGCC", "PBM E-score": -0.14}, {"sequence": "ACAGAGGG", "PBM E-score": -0.169}, {"sequence": "ATTGTATC", "PBM E-score": -0.0327}, {"sequence": "ATCAACCG", "PBM E-score": 0.123}, {"sequence": "CCCCAGGC", "PBM E-score": -0.144}, {"sequence": "CTCACGGA", "PBM E-score": 0.264}, {"sequence": "ATTGGGAC", "PBM E-score": -0.131}, {"sequence": "ACACTGCC", "PBM E-score": 0.154}, {"sequence": "ACGCGAGT", "PBM E-score": 0.0357}, {"sequence": "GGTCGACA", "PBM E-score": -0.0544}, {"sequence": "CATAGCAG", "PBM E-score": -0.323}, {"sequence": "AGATATAG", "PBM E-score": -0.0995}, {"sequence": "AGGTCTAG", "PBM E-score": -0.268}, {"sequence": "GATACCAC", "PBM E-score": 0.0374}, {"sequence": "ACGAGCTC", "PBM E-score": 0.159}, {"sequence": "TGTCTGAA", "PBM E-score": -0.131}, {"sequence": "ATAGTGTA", "PBM E-score": -0.188}, {"sequence": "GGGATACC", "PBM E-score": 0.101}, {"sequence": "CACAAGAA", "PBM E-score": 0.126}, {"sequence": "AAGCAAAC", "PBM E-score": -0.00769}, {"sequence": "AGTTTTCA", "PBM E-score": 0.0469}, {"sequence": "AAGCTTCT", "PBM E-score": -0.103}, {"sequence": "AGGATGGG", "PBM E-score": -0.0635}, {"sequence": "AGTAACCG", "PBM E-score": 0.0425}, {"sequence": "CGTTGGAA", "PBM E-score": -0.0729}, {"sequence": "AACATTGC", "PBM E-score": -0.126}, {"sequence": "CCTCCCCA", "PBM E-score": 0.0214}, {"sequence": "AACTCAGC", "PBM E-score": -0.0498}]}]}
